Experimental findings from the RNAGym collection of RNA variant scans (doi:10.7554/elife.90254) are described below.

The labels stand for the following.
B1: LINE1-mini (parent)
chain: GGCAGAGCUCAACACAGCGUGGCAAAGUGGCUGUGGCUAGACUGCC

The source gives no read counts; variants with many changes may rest on few reads.

The variants in this data set derive from B1. Put plainly: self-cleavage, relative activity (ratio to wild type); higher = more cleavage; in vitro, sequencing; the parent is a self-cleaving ribozyme.
Take G7A C18G G29C G33U U38G G44A: the self-cleavage was 0.01.

With G7C G17A C18A U20A U34C G35C A41U C45G, the self-cleavage was determined as 0.01.

G7A A12C C13U G19A C42A: the self-cleavage was 0.06.

With A6U U32A U38C, the self-cleavage stood at 0.02.

For G7C C31G G35A C37A, the self-cleavage is 0.12.

Regarding G7A A12G A24C A25U G30C A41C U43A, the self-cleavage came to 0.25.

As for A6U U9G G17C A26C C45U, the self-cleavage was found to be 0.02.

With G7A U34G G40U U43G, the self-cleavage came out at 0.35.

For the variant G7C C13A A16G C45A, the self-cleavage was determined as 0.03.

In the case of G7A U28C G40A C42A, the self-cleavage worked out at 0.05.

Regarding G7A G30A A39U U43C, the self-cleavage came out at 0.18.

As to G7C A25U C31A, the self-cleavage was determined as 0.03.

With G7A C15U U43C, the self-cleavage was 0.26.

Regarding G7C A11U C31A U32C G35A C42G U43A, the self-cleavage turned out to be 0.

For G7A A11G G17A G29U C46G, the self-cleavage worked out at 0.02.

Turning to G7C A26C G35U G36U C42U, the self-cleavage is 1.63.

Consider G7C A12C G19A A41C, for which the self-cleavage was 0.01.

As to G7A C10G G40U, the self-cleavage turned out to be 0.01.

With A6U U9G C10U G44C, the self-cleavage stood at 0.1.

Consider G7C U20A U28A U32A U34C C37A, for which the self-cleavage was determined as 0.01.

On to G7A G29C G33U G40C, for which the self-cleavage was 0.18.

Consider A6U U9A U28G G33U, for which the self-cleavage is 0.14.

For the variant G7A C18G G33A, the self-cleavage worked out at 0.09.

For the variant G7C A16G C23A, the self-cleavage is 0.02.

For A6U U28C G29C U34C, the self-cleavage worked out at 0.11.

Consider G7A A16U G35C, for which the self-cleavage came to 0.05.

In the case of G7C C18A G19A A25G, the self-cleavage came to 0.2.

For the variant A6U U9G A14G G22A A26C U28C G36C, the self-cleavage is 0.06.

For the variant G7C C13U A26G C42U, the self-cleavage turned out to be 0.04.

As to G7C G21A A26U U38G, the self-cleavage amounted to 0.03.

For G7A C10A C15U, the self-cleavage was 0.02.

For the variant G7A C8U G27A U28C C45A, the self-cleavage was determined as 0.73.

For the variant G7A A14G C23U, the self-cleavage stood at 0.14.

As for A6U G27C G35A U38C, the self-cleavage was found to be 0.04.

Turning to G7A C8A U32G A41U, the self-cleavage came out at 0.15.

With G7A C15U G40U, the self-cleavage is 0.24.

Regarding A6U G33C U34C, the self-cleavage was 0.01.

Consider G7A C10G A12G A16C, for which the self-cleavage amounted to 0.02.

Regarding G7A C15A A41U, the self-cleavage was 0.25.

Take G7A A14U A16G A41G: the self-cleavage turned out to be 0.13.

With G7A C23G C31G G33A, the self-cleavage was 0.06.

Consider G7C C8A G22A G44C, for which the self-cleavage amounted to 0.14.

Turning to A6U U28C C37G C42U, the self-cleavage is 0.06.

On to G7C A14C G19A G21C U43G, for which the self-cleavage stood at 0.

For A6U G30U C45G, the self-cleavage is 0.87.

Consider G7A C18A G21C A24U G29A, for which the self-cleavage turned out to be 0.05.

With G7A U9A U28C, the self-cleavage was 0.1.

Turning to G7A G21C G27U A39U, the self-cleavage was found to be 0.27.

Regarding G7C A25C G44C, the self-cleavage was determined as 0.06.

On to G7C C10A G44C, for which the self-cleavage was found to be 0.01.

As to G7A C18A G35U, the self-cleavage is 0.03.

On to G7C U20A A25U U28G, for which the self-cleavage was 0.03.

Consider G7C A26G C31A G33A, for which the self-cleavage was 0.05.

For G7C C8A G29U C37A, the self-cleavage is 0.05.

As for G7A A11G A41C, the self-cleavage is 0.01.

On to G7C C10U A12C U34A, for which the self-cleavage turned out to be 0.01.

Take G7A G27C C46U: the self-cleavage stood at 0.09.

Regarding G7A C15G G29A, the self-cleavage worked out at 0.11.

With G7A G19A G35U, the self-cleavage is 0.55.

Take G7C A41C U43A: the self-cleavage is 0.25.

G7A A12U G22A C23G: the self-cleavage worked out at 0.01.

Turning to G7A A24G G30A, the self-cleavage is 0.37.

With A6U U9G A11U, the self-cleavage came to 0.04.

With G7C C8A G30C, the self-cleavage worked out at 0.27.

For the variant G7A G17C G22U, the self-cleavage is 0.17.

Take G7C G19U G29U: the self-cleavage turned out to be 0.14.

In the case of A6U G35U C37U A39U C42G, the self-cleavage worked out at 0.

Regarding G7C C15G C42A G44C C45A, the self-cleavage turned out to be 0.02.

Consider G7A U9G A11C G33C, for which the self-cleavage stood at 0.03.

In the case of G7A C15G C18A G35U U38A, the self-cleavage was determined as 0.05.

For the variant G7A G21U G40A C42A, the self-cleavage amounted to 0.27.

For G7C C23U A39U, the self-cleavage is 0.1.

For the variant G7A C37U C46A, the self-cleavage came out at 0.

Consider G7A C18A A26U, for which the self-cleavage was determined as 0.16.

Turning to G7A C8U U38G, the self-cleavage turned out to be 0.05.

Take G7C A12U A24U: the self-cleavage stood at 0.1.

For the variant G7C G29A C37G G40U, the self-cleavage stood at 0.08.

For G7C G36C U38G G44C, the self-cleavage is 0.

As for G7A C8A C15A G22U G40U, the self-cleavage came out at 0.57.

For G7A A26U G27A G29C C45A, the self-cleavage was 0.02.

Regarding G7C C15G C31U G36C, the self-cleavage came out at 0.02.

With G7A G36C C46U, the self-cleavage was 0.57.

With A6U U9C C18G G36C, the self-cleavage worked out at 0.05.

Consider G7C A11U U38A, for which the self-cleavage was determined as 0.02.

As for G7A U9A A41U, the self-cleavage was 0.13.

Turning to G7C C15G C46A, the self-cleavage stood at 0.04.

For the variant G7A C8A C10A G33A C37G C45U, the self-cleavage came out at 0.02.

With G7A U9A U38C, the self-cleavage came to 0.18.

As to G7C A26G C31U, the self-cleavage came out at 0.02.

On to G7C C10A A11G G21A C46G, for which the self-cleavage was determined as 0.01.

On to G7A A25U U43G G44U C45A, for which the self-cleavage turned out to be 0.12.

Turning to G7C C23G A26C C46A, the self-cleavage was 0.05.

As to G7C G30A A41C, the self-cleavage was 0.13.

With G7C C15G G17U G19C G35C A39U G40C, the self-cleavage turned out to be 0.01.

For the variant G7A U9A G33A G35U C45G, the self-cleavage is 0.13.

With G7A U9A A12G C13U G22A, the self-cleavage was 0.03.

G7A G21A G27C: the self-cleavage worked out at 0.1.

Consider A6U U9A G21U G30A, for which the self-cleavage was found to be 0.16.

With G7C G19A C45A, the self-cleavage worked out at 0.02.

For the variant G7A U28G C37U, the self-cleavage came out at 0.04.

Consider G7A A24U U38G, for which the self-cleavage amounted to 0.06.

With G7C U9C U20C, the self-cleavage was found to be 0.01.

Turning to G7A A11C C15A, the self-cleavage came to 0.01.

On to G7C A12U G35U C45U, for which the self-cleavage turned out to be 0.08.

Take G7C G36U G40A U43C: the self-cleavage worked out at 0.03.

For the variant G7C A25U G44A, the self-cleavage was 0.07.

G7C C13A G21A G27C G35C G36U: the self-cleavage worked out at 0.21.

G7C G21U C23U: the self-cleavage came to 0.43.

For G7C G30A A39U, the self-cleavage is 0.03.

In the case of G7C A14U C46A, the self-cleavage was 0.12.

In the case of G7C C10U G19C G21U G33U, the self-cleavage came out at 0.03.

As to G7C C10A C13U G30U G40C, the self-cleavage stood at 0.02.

Turning to G7A U9A A11G G22U C45G, the self-cleavage amounted to 0.01.

In the case of G7C G21U G29U, the self-cleavage was 0.13.

Consider G7A C8U C15U U20G C23G C42A, for which the self-cleavage is 0.02.

As to G7A G19U C31G G33U, the self-cleavage amounted to 0.11.

As to G7C C13U G29A U38G, the self-cleavage is 0.

In the case of G7C G19C C37U, the self-cleavage was determined as 0.03.

Take G7A U9G A11C C23U A24G: the self-cleavage worked out at 0.01.

G7A C8U U28C G33C: the self-cleavage was 0.3.

Take G7A U9G C13A G19A C37A U38C U43A C45A: the self-cleavage is 0.1.

For G7A U38C G40U G44A, the self-cleavage was determined as 0.15.

For the variant G7C C8A C18U U28A C31G, the self-cleavage came to 0.12.

For the variant G7C C18A G21U C37U C46U, the self-cleavage stood at 0.02.

For the variant G7C C13U C15G G21U A39C G44U, the self-cleavage turned out to be 0.05.

Turning to G7A A12U G30C A39U G40C G44C, the self-cleavage stood at 0.2.

With G7A G27C U32G G44U, the self-cleavage came to 0.05.

On to G7A A11U C15U U20A, for which the self-cleavage was 0.04.

G7A A12G G30U U32A: the self-cleavage was found to be 0.39.

With G7A A11U G33U C42A, the self-cleavage is 0.06.

G7A U9G C10A U32A: the self-cleavage came to 0.01.

In the case of G7C A26C G29U, the self-cleavage came to 0.03.

For the variant G7A G33C G44U C45A, the self-cleavage was 0.02.

With A6U G29A U32G U38C, the self-cleavage came out at 0.09.

As to G7C A11G A16C C45G, the self-cleavage was 0.03.

For G7C A11C U32G, the self-cleavage was found to be 0.05.

For the variant G7C C18A G19U U20C U43C, the self-cleavage was 0.08.

For the variant G7A C10G G22A C23G, the self-cleavage turned out to be 0.03.

For A6U U43G G44A, the self-cleavage was found to be 0.01.

A6U G27A U28G A39G: the self-cleavage was found to be 0.06.

G7C C15U C18G G27C G36C G40U: the self-cleavage came to 0.07.

On to G7C C10A G21C C37U C45U, for which the self-cleavage came to 0.01.

For the variant G7C G27C G30A, the self-cleavage was 0.22.

G7C G35U G40C: the self-cleavage is 0.21.

In the case of G7C G35U U43A, the self-cleavage was found to be 0.02.

Regarding G7A C23A C37A G40U C42U, the self-cleavage worked out at 0.21.

For G7A U9G C13U G22U U34G C46A, the self-cleavage came to 0.02.

In the case of G7A C23A G40U, the self-cleavage is 0.15.

For G7C C8G A25U U32A, the self-cleavage was found to be 0.14.

Take G7A C8A C23A G30C: the self-cleavage stood at 0.12.

With G7A C10U U20A, the self-cleavage turned out to be 0.02.

With G7C C31A U34A, the self-cleavage is 0.02.

With G7A U9G A41C, the self-cleavage is 0.03.

Turning to A6U G27U G35U U43C, the self-cleavage turned out to be 0.06.

Consider G7A G19U A25G C46U, for which the self-cleavage came to 0.18.

Regarding G7A G29U G36U A39U, the self-cleavage came out at 0.24.

With G7A G29U G36U A39G, the self-cleavage amounted to 0.02.

Take G7A G27U U38C: the self-cleavage was determined as 0.11.

Turning to A6U U43A G44C C46U, the self-cleavage was 0.24.

Take A6U G29C G35A C45U: the self-cleavage stood at 0.94.

G7A C31U C37G: the self-cleavage turned out to be 0.01.

For G7C G35C C42A, the self-cleavage came to 0.04.

G7C A11C C37U: the self-cleavage amounted to 0.02.

For G7A C23U A39U, the self-cleavage turned out to be 0.03.

With G7A G33C G36A, the self-cleavage amounted to 0.06.

Consider G7A C23G G27U G29C, for which the self-cleavage stood at 0.02.

Take G7A U9A A11G A16U U20G C31G C46A: the self-cleavage was 0.05.
